# Laboratory results published in PMC12215968.
# A number of entries come with more than one value. This list holds those alone. There may be further records. Some protein pairs were linked at several places, one record each.
# Molecular target: CCT3 (UniProt P49368)
# Test: cross-linking mass spectrometry
# Details: TSTO, in cells
# Chain of PDCD5 (O14737 whole entry): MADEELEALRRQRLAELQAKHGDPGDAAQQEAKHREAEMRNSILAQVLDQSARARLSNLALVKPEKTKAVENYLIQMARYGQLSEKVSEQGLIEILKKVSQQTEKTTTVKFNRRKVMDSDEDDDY
# Chain of TCP1 (P17987 whole entry): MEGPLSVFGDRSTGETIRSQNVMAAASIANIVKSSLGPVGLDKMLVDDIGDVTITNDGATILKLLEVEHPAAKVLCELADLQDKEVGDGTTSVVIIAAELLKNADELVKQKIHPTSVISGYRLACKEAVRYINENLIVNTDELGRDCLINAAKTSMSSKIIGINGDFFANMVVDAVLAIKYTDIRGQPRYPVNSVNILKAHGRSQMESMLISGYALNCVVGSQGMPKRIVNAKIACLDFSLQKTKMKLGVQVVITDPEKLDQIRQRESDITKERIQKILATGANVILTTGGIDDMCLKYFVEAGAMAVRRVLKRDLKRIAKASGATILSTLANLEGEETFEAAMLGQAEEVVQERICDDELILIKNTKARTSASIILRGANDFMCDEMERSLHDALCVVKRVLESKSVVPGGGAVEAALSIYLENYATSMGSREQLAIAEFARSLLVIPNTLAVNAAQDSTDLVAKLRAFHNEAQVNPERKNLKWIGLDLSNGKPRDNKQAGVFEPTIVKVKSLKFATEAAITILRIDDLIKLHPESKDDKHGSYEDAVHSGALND
# Chain of UniProt P49368 (P49368 whole entry): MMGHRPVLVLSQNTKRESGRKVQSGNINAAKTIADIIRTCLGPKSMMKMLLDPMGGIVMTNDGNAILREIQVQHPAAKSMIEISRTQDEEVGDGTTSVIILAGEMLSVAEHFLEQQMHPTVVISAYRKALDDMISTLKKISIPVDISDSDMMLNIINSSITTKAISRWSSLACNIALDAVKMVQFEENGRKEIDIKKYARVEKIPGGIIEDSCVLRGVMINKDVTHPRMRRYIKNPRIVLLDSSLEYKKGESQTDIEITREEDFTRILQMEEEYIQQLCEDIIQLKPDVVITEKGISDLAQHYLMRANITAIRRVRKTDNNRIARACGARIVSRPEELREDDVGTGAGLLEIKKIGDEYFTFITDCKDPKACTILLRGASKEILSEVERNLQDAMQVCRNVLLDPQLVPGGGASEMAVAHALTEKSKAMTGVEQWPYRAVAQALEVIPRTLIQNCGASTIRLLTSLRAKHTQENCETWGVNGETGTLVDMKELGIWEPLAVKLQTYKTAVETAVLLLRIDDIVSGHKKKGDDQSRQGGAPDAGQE
# Chain of CCT6A (P40227 whole entry): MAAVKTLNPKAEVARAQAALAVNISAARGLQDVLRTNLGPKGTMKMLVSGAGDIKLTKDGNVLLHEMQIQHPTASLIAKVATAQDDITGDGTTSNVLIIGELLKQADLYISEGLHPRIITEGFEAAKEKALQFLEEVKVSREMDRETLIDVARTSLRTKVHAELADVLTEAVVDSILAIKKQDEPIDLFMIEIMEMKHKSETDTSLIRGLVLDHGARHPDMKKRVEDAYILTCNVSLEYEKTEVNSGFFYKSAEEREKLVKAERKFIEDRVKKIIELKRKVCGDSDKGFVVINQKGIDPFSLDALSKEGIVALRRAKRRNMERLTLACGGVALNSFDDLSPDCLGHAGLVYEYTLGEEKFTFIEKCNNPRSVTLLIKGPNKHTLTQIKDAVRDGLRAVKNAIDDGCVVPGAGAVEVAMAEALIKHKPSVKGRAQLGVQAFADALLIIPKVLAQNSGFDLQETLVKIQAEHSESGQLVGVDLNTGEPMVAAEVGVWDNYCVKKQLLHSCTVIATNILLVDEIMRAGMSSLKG
row,Substance,cross-linked residues
1,"TCP1, P17987",K199 - K138 and K532 - K527 and K532 - K529
2,"CCT6A, P40227",K10 - K15 and K10 - K21 and K10 - K78 and K530 - K15 and K530 - K78
3,"PDCD5, O14737",K66 - K527 and K66 - K529 and K97 - K529 and K98 - K527 and K98 - K529 and K105 - K527 and K105 - K529
